# According to a collection of fitness landscapes (doi:10.1126/science.1257360):
# The list shows a part of the results.
# B1: PhoQ; a variant is named by its letters at X, in order, P23837 (parent)
# chain: MKKLLRLFFPLSLRVRFLLATAAVVLVLSLAYGMVALIGYSVSFDKTTFRLLRGESNLFYTLAKWENNKLHVELPENIDKQSPTMTLIYDENGQLLWAQRDVPWLMKMIQPDWLKSNGFHEIEADVNDTSLLLSGDHSIQQQLQEVREDDDDAEMTHSVAVNVYPATSRMPKLTIVVVDTIPVELKSSYMVWSWFIYVLSANLLLVIPLLWVAAWWSLRPIEALAKEVRELEEHNRELLNPATTRELTSLVRNLNRLLKSERERYDKYRTTLTDLTHSLKTPLXXLQXXLRSLRSEKMSVSDAEPVMLEQISRISQQIGYYLHRASMRGGTLLSRELHPVAPLLDNLTSALNKVYQRKGVNISLDISPEISFVGEQNDFVEVMGNVLDNACKYCLEFVEISARQTDEHLYIVVEDDGPGIPLSKREVIFDRGQRVDTLRPGQGVGLAVAREITEQYEGKIVAGESMLGGARMEVIFGRQHSAPKDE
# Variants of: B1
# Assay: enrichment ratio after two sorts for PhoP signalling (ratio (wild type AVST 3.29)); higher = more functional
# Details: with PhoP (E. coli)
row,Variant,enrichment ratio
1,SYQK,≤ 0.25
2,EISL,4.88
3,DYNS,≤ 0.25
4,CLRI,≤ 0.25
5,ARHK,≤ 0.25
6,VGVM,≤ 0.25
7,VWST,≤ 0.25
8,GPGV,≤ 0.25
9,GWLD,≤ 0.25
10,IDNL,≤ 0.25
11,RETL,≤ 0.25
12,LTYN,≤ 0.25
13,RYAN,≤ 0.25
14,VNLA,0.581
15,QMDI,≤ 0.25
16,QGAW,≤ 0.25
17,HDAY,≤ 0.25
18,QLKA,≤ 0.25
19,FQAH,≤ 0.25
20,QMTA,≤ 0.25
21,NRFK,≤ 0.25
22,FCAQ,≤ 0.25
23,AFPP,≤ 0.25
24,MDTL,≤ 0.25
25,PSGW,≤ 0.25
26,FSAF,≤ 0.25

row,Variant,enrichment ratio
1,MMIR,≤ 0.25
2,IWDQ,≤ 0.25
3,DCHH,≤ 0.25
4,QVPW,≤ 0.25
5,QHIA,≤ 0.25
6,LHTE,≤ 0.25
7,ACAH,4.6
8,WYTD,≤ 0.25
9,FCFD,≤ 0.25
10,LYNR,≤ 0.25
11,TIYR,2.57
12,DSPH,≤ 0.25
13,WFNH,≤ 0.25
14,LPAA,≤ 0.25
15,YPKC,≤ 0.25
16,DHFL,≤ 0.25
17,DHGS,≤ 0.25
18,EPCT,≤ 0.25
19,SYPH,≤ 0.25
20,PGCC,≤ 0.25
21,SIVP,≤ 0.25
22,YSAE,≤ 0.25
23,QVRC,≤ 0.25
24,IRKM,≤ 0.25
25,WTRW,≤ 0.25
26,PWKI,≤ 0.25

row,Variant,enrichment ratio
1,LCLQ,≤ 0.25
2,MPGP,≤ 0.25
3,AEEH,≤ 0.25
4,IDAI,≤ 0.25
5,INEF,≤ 0.25
6,AYRC,≤ 0.25
7,ICHP,≤ 0.25
8,NPHT,≤ 0.25
9,NAFL,0.25
10,IHGG,≤ 0.25
11,MLSV,≤ 0.25
12,NENG,≤ 0.25
13,VENN,≤ 0.25
14,IYEH,≤ 0.25
15,QRNF,≤ 0.25
16,PTFT,≤ 0.25
17,HRHE,≤ 0.25
18,LFPA,≤ 0.25
19,ISQC,≤ 0.25
20,ADKF,≤ 0.25
21,RGDS,≤ 0.25
22,FHQR,≤ 0.25
23,PFYP,≤ 0.25
24,HECV,15.4
25,MDQL,≤ 0.25
26,LCFK,≤ 0.25

row,Variant,enrichment ratio
1,ADVW,≤ 0.25
2,NFDR,≤ 0.25
3,GGGV,2.7
4,QPLW,≤ 0.25
5,IPVT,≤ 0.25
6,DMSS,≤ 0.25
7,DWAP,≤ 0.25
8,DMMY,≤ 0.25
9,RADG,≤ 0.25
10,SRCK,≤ 0.25
11,DLCL,≤ 0.25
12,TTCV,17.3
13,FSWQ,≤ 0.25
14,QQIS,≤ 0.25
15,PQLY,≤ 0.25
16,KSIS,≤ 0.25
17,TRLA,≤ 0.25
18,IEML,≤ 0.25
19,VQKY,≤ 0.25
20,GPCF,≤ 0.25
21,VKRN,≤ 0.25
22,TCAE,≤ 0.25
23,YTLD,≤ 0.25
24,ACQN,≤ 0.25
25,GPDM,≤ 0.25
26,LFYR,≤ 0.25

row,Variant,enrichment ratio
1,LEGS,≤ 0.25
2,AMST,12.2
3,HCAR,≤ 0.25
4,PPCY,≤ 0.25
5,IHYC,≤ 0.25
6,EEYS,≤ 0.25
7,WCGS,≤ 0.25
8,ESNQ,≤ 0.25
9,LFCF,≤ 0.25
10,PNLH,≤ 0.25
11,DGQD,≤ 0.25
12,WTRD,≤ 0.25
13,RQWH,≤ 0.25
14,VTGH,≤ 0.25
15,MTPD,≤ 0.25
16,TVTR,2.26
17,LTPG,≤ 0.25
18,LEMT,2.97
19,VMHI,≤ 0.25
20,RILG,≤ 0.25
21,GEFM,6.94
22,ASRY,≤ 0.25
23,DMPG,≤ 0.25
24,SYGP,≤ 0.25
25,QFNT,≤ 0.25
26,KDSQ,≤ 0.25

row,Variant,enrichment ratio
1,TSFQ,6.93
2,GGGD,≤ 0.25
3,FFHP,≤ 0.25
4,FDSN,≤ 0.25
5,NADF,≤ 0.25
6,SQCF,11.4
7,VDLS,≤ 0.25
8,PGSC,≤ 0.25
9,SMWC,≤ 0.25
10,KAAI,≤ 0.25
11,EFIF,≤ 0.25
12,SAGH,5.09
13,KYQC,≤ 0.25
14,GGSH,≤ 0.25
15,DTLE,≤ 0.25
16,VPWC,≤ 0.25
17,LDFM,≤ 0.25
18,LSWG,≤ 0.25
19,QKSL,1.35
20,LDHF,≤ 0.25
21,VGQI,≤ 0.25
22,WNNS,≤ 0.25
23,KNTH,≤ 0.25
